US20250295801A1, “CD25 ANTIBODIES, ANTIBODY DRUG CONJUGATES, AND USES THEREOF” (Seagen Inc., priority 2024, published 2025)
“Also recorded” adds a separate entry of the source.

Legend:
L82 xenograft = assay: In vivo efficacy in cell line xenograft model; set-up: species or system NSG mice; details: FIG. 4B, FIG. 11A at 1.2 mg/kg
Experimental: (§1) The in vivo efficacy of CD25 ADCs was evaluated in three xenograft models that express CD25 (DEL, L82, L540cy) in either SCID (DEL, L540cy) or NSG mice (L82). To conduct the efficacy experiments, 5×10^6 cells were injected subcutaneously into 5 female mice per group. Mice were randomly divided to study groups and dosed with test article via intraperitoneal injection once the tumors reached approximately 100 mm^3. For the L82 model in NSG mice, all mice were pre-treated with 10 mg/kg human IVIG 24 hours prior to treatment. Animals were euthanized when tumor volumes reach 800-1000 mm^3. Tumor volume was calculated with the formula (volume=1/2×length×width×width). Mice showing durable regressions were terminated around day 60.

[1] = tested on: Tregs in tumors, spleen and PBMC; assay: Treg depletion in MC38 tumor-bearing human CD25 transgenic mice (flow cytometry); type: in vivo, mouse
Experimental: To test ADC-mediated antitumor activity and Treg depletion in a syngeneic tumor model, the C57BL/6-Il2ratml(IL2RA) mice were implanted with subcutaneous MC38 murine colon carcinoma tumors. When tumors reached ˜80-100 mm^3, ADCs were administered at a dose of 1 mg/kg every three days for a total of 3 doses. ADC activity was compared to an anti-PD1 control and IgG1 ADC control. To assess the extent of Treg depletion in tumors compared to spleen and PBMC, mice were administered anti-CD25 ADC at a dose of either 3, or 6 mg/kg every three days for a total of 3 doses and compared to an IgG1 ADC control. The impact to Tregs was assessed in tumors, spleen, and PBMC by flow cytometry at 2 days post the second dose.
The Treg depletion by CD25 antibody SG25Ab-9 MMAE ADC was measured in a colon cancer (MC38) xenograft model of a human CD25 transgenic mouse. […] Two days after the third dose, untreated mice were analyzed for CD25 expression by flow cytometry.

[2] = tested on: CD25hi Tregs and CD25lo Tregs; assay: Treg suppression assay (Treg CD8+ co-culture); type: cell-based, human; details: Tregs to CD8+ T cells 1:2, CD3/CD28 beads, 4 days, 1, 3 or 10 μg/mL; FIG. 18B
Experimental: A Treg suppression assay was performed using the human Treg Suppression Inspector Kit (Miltenyi #130-092-909) according to manufacturer instructions. Cryopreserved human peripheral blood CD8+ T cells (Stem Cell Technologies, 200-0164) and CD4+CD25+CD127low Tregs (Stem Cell Technologies, 200-0123) from 2 normal donors were thawed and CD8+ T cells were labeled with Cell Trace™ CFSE dye (Invitrogen). Cells were mixed at ratio of Tregs to CD8+ T cells (1:2) in 96-well round-bottom plates, stimulated with CD3/CD28 beads (Treg suppression inspector kit, Miltenyi #130-092-909), and treated with CD25 antibody SG25Ab-9 or detuned CD25 antibody SG25Ab-9 YH98A MMAE ADC, at 1, 3 or 10 μg/mL, as well as non-targeting control (Isotype ADC) at 10 mg/mL. After 4 days of incubation at 37C and 5% CO2, cells were collected, washed in PBS, and stained with a Zombie Aqua viability dye (Biolegend #423102) for 15 minutes at room temperature. Cells were then washed in PBS with 2% FBS and stained with anti-hCD25-PE (Biolegend #302606), anti-hCD3-PE/Cy7 (Biolegend #300316), anti-hCD8-AF700 (Biolegend (#344724), and anti-CD4-APC Fire 750 (Biolegend #344638) for 30 minutes at 4C. Cells were washed twice, resuspended in cell staining buffer and acquired on an Attune NxT flow cytometer and Ultracomp ebeads Compensation Beads (ThermoFisher #01-2222-42) were used to compensate multi-fluorochromes.

L540cy xenograft = assay: In vivo efficacy in cell line xenograft model; set-up: species or system SCID mice; details: L540cy cell line-derived xenograft; FIG. 4A, 4C, 4D
Experimental: as §1

cynomolgus monkeys = assay: Repeat-dose toxicology study and Treg depletion in non-human primates; type: in vivo, cynomolgus monkey
Experimental: To evaluate and compare Treg depletion of CD25 antibody clone 123 MMAE ADC, detuned CD25 antibody SG25Ab-9 MMAE ADC and a non-binding IgG1 MMAE ADC, male cynomolgus macacques were administered an intravenous bolus dose of 6 mg/kg ADC on days 1, 22, and 43. Exploratory FACS analysis was performed on peripheral blood samples to evaluate effects on leukocyte subpopulations and potential toxicity.
Samples used for flow cytometric analysis were collected in EDTA-coated tubes twice during acclimation on days −12 and −7, and at 48, 96, 168, and 336 hrs post-Day 1 dose, prior to dosing on Days 22 and 43, and at 48, 96, and 168 hrs post-Day 43 dose. […]
To prepare cells for FACS analysis, one vial of each sample was thawed at 37° C. and transferred into 1 ml of RPMI 1640+10% FBS (R10) media in a deep well 96-well plate. […] Cells were then resuspended in 150 μL staining buffer and analyzed on an NXT Attune flow cytometer. Flow cytometry data was analyzed using FlowJo software. […] Absolute numbers were calculated by multiplying the total lymphocyte count acquired from hematology (cells/L×109) on fresh whole blood with the frequency of each lymphocyte subpopulation within the live/single cell/lymphocyte gate determined through flow cytometry. […]

L540cy cells = assay: In vitro cytotoxicity towards CD25-expressing lymphoma cells (CellTiter-Glo); type: cell-based, human; details: 96 hours
Experimental: Cells were incubated with ADCs for 96 hours at 37° C. A non-binding ADC was included as a negative control. Cell viability was measured using CellTiter-Glo (Promega) according to the manufacturer's instructions. Cells (ca. 500-1000 cells/well) were seeded onto a 96-well culture plate with a clear bottom in culture medium. Dilutions of ADC were added to each well (2000 ng/mL to 0 ng/mL) and the samples were incubated for 96 hours at 37° C. Luminescence was measured using a plate reader (Envision 4605). The data was fit using Graph Pad software and an IC50 was calculated.

[3] = tested on: purified human CD8 T cells; assay: In vitro cytotoxicity towards purified human CD8 T cells; type: cell-based
Experimental: (§2) Purified human Tregs or CD8 T cells (acquired from either Astarte, Bothell, WA or […] Technologies, Vancouver, BC, Canada) were cultured in the presence of anti-CD3/CD28 beads (ThermoFisher) and incubated with ADCs for 96 hours. Cell viability was assessed using Cell Titer-Glo (Promega, Madison, WI).

purified human Tregs = assay: In vitro cytotoxicity towards purified human Treg cells; type: cell-based
Experimental: as §2

B1: SG25Ab-9 MMAE ADC (conjugate)
heavy: QVQLVQSGAEVKKPGESLKISCKGSGYSSTSYWIGWVRQMPGKGLEWMGIIYPGDSDTRYSPSFQGQVTISADKSISTAYLQWSSLKASDTAMYYCARLGSYYAFDIWGRGTMVTVSS[human IgG1 constant region left out here]
light: QSALTQPASVSASPGQSITISCTGTSSDVGAYIYVSWYQQLSGKPPKLILYDVSKRPSGISDRFSGSKSGNTASLTISGLQADDEADYYCSSYTRSSTWVFGGGTQLTVLGQPKAAPSVTLFPPSSEELQANKATLVCLISDFYPGAVTVAWKADSSPVKAGVETTTPSKQSNNKYAASSYLSLTPEQWKSHRSYSCQVTHEGSTVEKTVAPTECS
modifications: non-natural residues
Q: With B1 as the molecule, how does the “in vivo anti-tumor activity” value (L82 xenograft) read?
A: showed in vivo anti-tumor activity

Q: What about the “Treg cells in the tumor (intratumoral Tregs)” value ([1]; 3 or 6 mg/kg, FIG. 16C, 16E) of the same molecule?
A: substantially reduced Treg cells in the tumor

Q: And the “Treg cells in PBMC” value ([1]; FIG. 16A)?
A: reduced Treg cells in PBMC and splenocytes

Q: What about the “Treg cells in splenocytes” value ([1]; FIG. 16B) of the same molecule?
A: reduced Treg cells in PBMC and splenocytes

Q: What about the “CD25hi Tregs and CD25lo Tregs counts” value [2] of the same molecule?
A: kills Tregs, regardless of CD25 expression levels

Q: And the “in vivo anti-tumor activity” value (L540cy xenograft)?
A: showed in vivo anti-tumor activity

Q: What about the tolerability (cynomolgus monkeys; 6 mg/kg bolus intravenous once every three weeks, three doses) of the same molecule?
A: well tolerated

Q: What about the “peripheral Treg cells compared to baseline” value (cynomolgus monkeys; 6 mg/kg intravenous q3wx3, FIG. 17A) of the same molecule?
A: marked decrease in Treg cells compared to baseline; also recorded: significant and prolonged reductions in Treg frequency with no recovery at any time points

Q: What about the in vitro cytotoxicity (L540cy cells) of the same molecule?
A: anti-tumor activity towards L540cy cells similar to CD30 antibody cAC10 MMAE ADC

Q: What about the “effect on CD8 T cells from human peripheral blood” value ([3]; FIG. 5B, 5D) of the same molecule?
A: did not impact CD8 T cells

Q: And the “in vitro cytotoxicity towards purified human CD8 T cells” value ([3]; anti-CD3/CD28 beads, 96 hours, FIG. 13B)?
A: not cytotoxic towards purified human CD8 T cells

Q: And the “effect on Treg cells from human peripheral blood” value (purified human Tregs; FIG. 5A, 5C)?
A: killed Tregs

Q: And the “in vitro cytotoxicity towards purified human Treg cells” value (purified human Tregs; stimulated with CD3/CD28 beads, 96 hours, FIG. 13A)?
A: less cytotoxic towards purified human Treg cells than CD25 antibody SG25Ab-9 tesirine ADC
